# PubChem BioAssay AID1508642 (National Center for Advancing Translational Sciences (NCATS), 2021)
# Screen size: about 43,000 compounds; about 200 (0.47%) were called active. Another 12% or so got no clear call; they are omitted. Calls come from the whole dose curve; as a rule, active = well fitted cell-killing curve with a large enough effect; inconclusive = small, poorly fitted or top-dose-only effect, or effect the other way; inactive = flat fitted curve, though single readings scatter. The list shows a part of the results.
# Assay: Cell viability qHTS assay in S16 Pmp22-F2sN cells; note: nearly all actives have a fitted effect of over 65% in size
# Details: S16 Pmp22-F2sN Schwann cells viability, CellTiter-Glo, 24 h; series mostly up to 57.5 µM; activity change, negative = cytotoxicity: at the top concentration
# Procedure, shortened: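 Viability was measured by CellTiter-Glo luminescence (15 min, room temperature). This followed 24 h at 37 °C of compound exposure (23 nL pin transfer) in S16 Pmp22-F2sN Schwann cells, 500-1,000 per well.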
# % is set by controls: 0 for no effect and ±100 for the full control effect.
row,SMILES,"activity change, negative = cytotoxicity"
1,CCNC(=O)c1c2c(nc3ccccc13)C(=O)N(C1CCCCC1)C2,inactive: 11.4%
2,O=C(Cn1c(SCc2ccccc2F)nc2cccnc21)Nc1ccc(F)c(Cl)c1,inactive: -23.2%
3,CCc1cccc(NC(=O)Cn2ncc3c([nH]c4ccc(C)cc43)c2=O)c1,inactive: 9.53%
4,CCOc1ccccc1NC(=O)CCc1c(C)nc2c3cccnc3nn2c1C,inactive: -3.26%
5,CCc1cccc(NC(=O)CN(c2ccc(C)cc2)S(=O)(=O)c2cccs2)c1,inactive: -2.73%
6,Cc1ccc(C(=O)N2CCc3cc(CNC(=O)CCc4ccccc4)ccc32)cc1,inactive: 2.22%
7,O=C(NC1CC(=O)N(c2ccccc2)C1)c1ccco1 (stereo not drawn),inactive: 0.918%
8,COc1cccc(C(=O)NCCc2csc(-c3cccc(F)c3)n2)c1OC,inactive: 7.47%
9,CCc1ccc(S(=O)(=O)Nc2cc3c(cc2N2CCOCC2)n(C)c(=O)c(=O)n3C)cc1,inactive: 9.23%
10,CCOc1ccc(NC(=O)C(=O)NCCc2ccccc2)cc1,inactive: 9.69%
11,O=c1c(N2CCCCC2)csc2ccc(F)cc12,inactive: 3.96%
12,COc1ccc(-c2nc3ccccc3s2)cc1NC(=O)COc1cccc(C)c1,inactive: 5.52%
13,CCc1nc2ccc(C(=O)NCc3cccc(Br)c3)cc2nc1CC,inactive: 1.76%
14,COCCCNC(=O)c1nn(-c2ccc(C)cc2)c(=O)n(C)c1=O,inactive: -0.32%
15,O=C(c1cnc(N2CCCCC2)c2ccccc12)N1CCN(c2cccc(Cl)c2)CC1,inactive: 1.45%
16,Cc1cc(C)cc(NC(=O)CCCn2c(=O)c3cccn3c3ccccc32)c1,inactive: 15.6%
17,O=C(Cn1c(=O)n(CCCS(=O)(=O)C2CCCCC2)c(=O)c2ccccc21)Nc1ccc(F)c(Cl)c1,inactive: 0.705%
18,COc1ccc(C)cc1NC(=O)N1CCN(c2nnc(C)c3c(C)n(-c4ccccc4)nc23)CC1,inactive: 3.35%
19,Cc1ccc(OCC(=O)Nc2sc3c(c2C(N)=O)CCCC3)c(C(C)(C)C)c1,inactive: 11.4%
20,COCCNC(=O)c1ccc(-c2nc(CN3CCc4ccccc43)c(C)o2)cc1,inactive: 16.7%
21,Cc1cccc(NC(=O)c2cc3c(=O)n4ccccc4nc3n2C)c1C,inactive: -7.49%

row,SMILES,"activity change, negative = cytotoxicity"
1,CCCCNC(=O)Cn1cnc2sc(C)c(S(=O)(=O)N3CCN(c4ccccc4OC)CC3)c2c1=O,inactive: 7.22%
2,Cc1csc2nc(COC(=O)c3ccc(NC(=O)C(C)C)cc3)cc(=O)n12,inactive: -23.4%
3,COc1ccccc1NC(=O)c1ncoc1-c1ccco1,inactive: -11.7%
4,CC(C)OCCCNC(=O)CN1C(=O)COc2ccc(S(=O)(=O)N3CCOCC3)cc21,inactive: 3.01%
5,Cc1ccc(-n2c(SCC(=O)Nc3ccc4c(c3)OCCO4)nc3c([nH]c4ccccc43)c2=O)cc1,inactive: -4.41%
6,Cc1cccc(NS(=O)(=O)c2nnc(NC(=O)c3cccc(C)c3)s2)c1,inactive: 3.18%
7,COC(=O)c1ccccc1NC(=O)CSc1nc2nc(C)cc(C)n2n1,inactive: 2.41%
8,Cc1ccc(C(=O)Nc2ccc(Br)cc2)cc1S(=O)(=O)NCc1ccccc1,inactive: -12.8%
9,CCOc1ccccc1C(=O)N(Cc1ccco1)Cc1ccccc1F,inactive: -4.32%
10,COC(=O)CN1C(C(=O)c2ccccc2)=C(OC(=O)c2ccc(C)cc2)c2ccccc2S1(=O)=O,inactive: 1.22%
11,Clc1cccc(CSc2ccc(-c3cccs3)nn2)c1,inactive: -24.6%
12,O=C(c1cccn1-c1nnc(N2CCCCC2)s1)N1CCN(c2ccccc2)CC1,inactive: 0.71%
13,CCOc1ccccc1CNC(=O)CCCN1C(=O)c2cccnc2Oc2ccc(Cl)cc21,inactive: -12.2%
14,COc1ccccc1Cn1c(SCC(=O)C(C)(C)C)nc2ccccc2c1=O,inactive: 9.34%
15,CCNC(=O)C1CCN(Cc2cc3ccccc3n2Cc2ccc(C)cc2)CC1,inactive: -1.22%
16,CCOC(=O)c1c(C)oc2nc(C)nc(N3CCN(c4ccc(OC)cc4)CC3)c12,inactive: -0.505%
17,COc1ccc(CNC(=O)CCCN2C(=O)c3cccnc3Oc3ccc(Cl)cc32)cc1,inactive: -2.96%
18,CCOC(=O)C1CCN(C(=O)Cn2ncc3c4ccccc4n(C)c3c2=O)CC1,inactive: 8.74%
19,CCn1c(=O)c2sccc2n2c(CCC(=O)NCc3ccc(Cl)cc3)nnc12,inactive: -7.15%
20,N#Cc1ccc(CSc2nnc(-c3ccc(Br)cc3)o2)cc1,inactive: -0.282%
21,Cn1cc(C(c2ccccc2)c2ccc(Cl)s2)c2ccccc21 (stereo not drawn),inactive: 9.74%

row,SMILES,"activity change, negative = cytotoxicity"
1,Cc1ccc(N2C(=O)CSC23C(=O)N(CC(=O)NC2CCCCC2)c2ccccc23)cc1C (stereo not drawn),inactive: 3.88%
2,CCOc1cccc(NC(=O)C2CC(=O)N(C)C(=Nc3ccc(F)cc3)S2)c1 (stereo not drawn),inactive: -9.56%
3,O=C(c1ccc(Br)s1)N(Cc1cccnc1)c1nc2ccc(F)cc2s1,inactive: 6.98%
4,CCOc1ccccc1NC(=O)CN1C(=O)COc2ccc(S(=O)(=O)N3CCCCC3)cc21,inactive: -6.69%
5,Cc1ccc2nc(COc3ccccc3NC(=O)COc3ccccc3Cl)cc(=O)n2c1,inactive: 5.36%
6,CSc1ncc(C(=O)NCc2ccc(C)cc2)c(-c2ccccc2)n1,inactive: 1.56%
7,Cc1ccc(CNC(=O)C2CCN(S(=O)(=O)c3c(C)noc3/C=C/c3c(C)cc(C)cc3C)CC2)cc1,inactive: 1.59%
8,CCOC(=O)c1c(C)oc2ncnc(Nc3cc(Cl)ccc3OC)c12,inactive: 8.95%
9,O=c1oc2c(CN3CCCC3)c(O)ccc2cc1-c1ccccc1,inactive: -0.2%
10,COc1ccccc1N1CCN(C(=O)Nc2cn(CC(C)C)c(=O)c3ccccc23)CC1,inactive: 0.167%
11,CCOCCCNC(=O)c1c(NC(=O)c2cc(=O)c3ccccc3o2)sc2c1CCC2,inactive: 3.29%
12,CC(C)C(=O)Nc1cccc(C(=O)Nc2nnc(CC(C)(C)C)s2)c1,inactive: 23.8%
13,CCOc1ccc(CNC(=O)c2ccc3c(c2)nnn3C2CCCC2)cc1,inactive: 26.2%
14,Cc1cccc(Cn2c(=O)n(Cc3ccc4c(c3)OCO4)c(=O)c3oc4ccccc4c32)c1,inactive: -2.12%
15,CCc1ccccc1NC(=O)c1cc2nc(-c3ccc(OC)c(OC)c3)cc(C(F)(F)F)n2n1,inactive: -2.27%
16,O=C(Nc1ccc(C(=O)OCc2cc(=O)n3c4c(sc3n2)CCCC4)cc1)c1ccc(Cl)cc1,inactive: 3.78%
17,Cc1ccc2c(=O)cc(C(=O)Nc3c(C(=O)Nc4cccc(Cl)c4)oc4ccccc34)oc2c1,inactive: -1.67%
18,COc1ccc(NC(=O)c2c(NCc3cccs3)sc3c2CCCC3)cc1,inactive: -6.37%
19,COC(=O)c1ccc(NC(=O)Cn2c(=O)nc(-c3ccccc3)c3ccccc32)cc1,inactive: 13.9%
20,CCOC(=O)c1ccc(NC(=O)Cn2ncc3c(C)n(Cc4ccccc4F)c(C)c3c2=O)cc1,inactive: 8.58%
21,COc1cc2ccccc2cc1C(=O)Nc1ccc2oc(-c3ccc(Cl)cc3)nc2c1,inactive: 12.5%
